Laboratory results from the BET-seq Pho4 binding data (Le et al. 2018).
Some of the results follow. These are noisy estimates, calculated here from bound and input reads.

Target: T1, Pho4 (S. cerevisiae) (UniProt P07270)
T1 sequence: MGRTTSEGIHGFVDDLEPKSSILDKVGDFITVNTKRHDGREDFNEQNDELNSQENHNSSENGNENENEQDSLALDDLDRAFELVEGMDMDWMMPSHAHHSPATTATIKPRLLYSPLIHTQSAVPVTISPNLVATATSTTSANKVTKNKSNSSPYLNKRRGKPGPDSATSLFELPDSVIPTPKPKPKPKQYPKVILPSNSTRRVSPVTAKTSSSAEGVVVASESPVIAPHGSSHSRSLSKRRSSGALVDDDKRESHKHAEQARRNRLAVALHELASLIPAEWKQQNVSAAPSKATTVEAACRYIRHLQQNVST
Experiment: relative binding free energy (BET-seq); higher = weaker binding
Details: reference: library average

Sequence | relative binding free energy
TTACACACGTGGGGCT | -0.11 kcal/mol
TGAATCACGTGTGGGG | 0.17 kcal/mol
TTGTGCACGTGTTGGC | 0.04 kcal/mol
CGCTTCACGTGGGTTG | 0.1 kcal/mol
GGATTCACGTGAAGAG | 0.49 kcal/mol
AGCGTCACGTGAGGCG | 0.11 kcal/mol
TCCTGCACGTGTAGGG | 0.09 kcal/mol
GGGAGCACGTGCCGGT | -0.19 kcal/mol
ATGCGCACGTGTGGGG | 0.02 kcal/mol
ACAAGCACGTGTGTGG | -0.06 kcal/mol
CTGGTCACGTGGTTCA | 0.2 kcal/mol
GTATACACGTGTGAAG | 0.1 kcal/mol
GTAGTCACGTGTGGGG | 0.22 kcal/mol
GACATCACGTGGGGAG | 0.09 kcal/mol
AGAGGCACGTGTCGGA | -0.08 kcal/mol
TGTCACACGTGCTTGT | 0.03 kcal/mol
TTGCTCACGTGCGTTG | 0.19 kcal/mol
TGTGGCACGTGGTTGG | -0.06 kcal/mol
AAATACACGTGAGGGT | 0.06 kcal/mol
TGTGGCACGTGATGGT | 0 kcal/mol
AGCAGCACGTGGGGAT | -0.26 kcal/mol
GTCGGCACGTGGGGTG | -0.17 kcal/mol
AAACGCACGTGAGGGT | 0.29 kcal/mol
AATTTCACGTGCGGTA | 0.08 kcal/mol
GGACGCACGTGGCTGG | -0.09 kcal/mol
AAGGGCACGTGGCTGA | -0.22 kcal/mol

Sequence | relative binding free energy
TTAGACACGTGGCGGA | -0.03 kcal/mol
TGATGCACGTGGATTA | 0.09 kcal/mol
ATGTCCACGTGATGTG | 0.13 kcal/mol
CATGTCACGTGATGAT | 0.17 kcal/mol
GATTGCACGTGGTTCG | 0.11 kcal/mol
ACAGGCACGTGCGGGG | -0.33 kcal/mol
TCTGGCACGTGGGTCG | -0.22 kcal/mol
ATAATCACGTGATTTC | 0.55 kcal/mol
GATAGCACGTGCGGTG | -0.05 kcal/mol
GGCGCCACGTGGTTTG | -0.07 kcal/mol
AAGAGCACGTGTGATA | 0.08 kcal/mol
TGTGGCACGTGCTGAT | -0.06 kcal/mol
GTGAACACGTGATCGG | 0.15 kcal/mol
CGATTCACGTGTGTGA | 0.45 kcal/mol
GATGTCACGTGGGTTG | 0.15 kcal/mol
AGTCTCACGTGCGGGT | 0.06 kcal/mol
GTAAGCACGTGTGAGC | 0.07 kcal/mol
GCGTTCACGTGGCTTT | 0.35 kcal/mol
TGACACACGTGTGGGT | 0 kcal/mol
TGGTACACGTGTCGCG | 0.13 kcal/mol
TGTATCACGTGCTCTT | 0.13 kcal/mol
CCTGACACGTGGTGGG | -0.14 kcal/mol
ACACGCACGTGGGGGG | -0.3 kcal/mol
ATTGGCACGTGGTAAA | -0.09 kcal/mol
GCGGTCACGTGAGGTT | 0.4 kcal/mol
TGCTACACGTGTCGGG | 0.14 kcal/mol

Sequence | relative binding free energy
ATGATCACGTGGGCGG | 0.03 kcal/mol
GGCGGCACGTGGACAG | -0.03 kcal/mol
GTTCACACGTGGTAGG | 0.1 kcal/mol
GGTGGCACGTGCGGGA | -0.11 kcal/mol
ATTGGCACGTGAACGG | 0.08 kcal/mol
ATATTCACGTGGCGGG | 0.13 kcal/mol
TAGCGCACGTGGGTTT | -0.23 kcal/mol
TCATGCACGTGAGGAT | 0.15 kcal/mol
GTTTGCACGTGTCTGT | 0.06 kcal/mol
ATGGACACGTGTTAGC | 0.16 kcal/mol
TGTATCACGTGATGTT | 0.24 kcal/mol
CCTGACACGTGGGGGG | -0.24 kcal/mol
GAAAACACGTGGTGGC | 0.18 kcal/mol
GGCGGCACGTGGAAAG | 0.03 kcal/mol
CAGTGCACGTGTGTGA | -0.08 kcal/mol
ATTGGCACGTGGAGAT | 0.02 kcal/mol
CTGTGCACGTGTCAGG | -0.05 kcal/mol
TGCACCACGTGTTGTG | -0.1 kcal/mol
TGTGCCACGTGGTTAA | -0.14 kcal/mol
GTGCTCACGTGGGTTG | 0.07 kcal/mol
GGATTCACGTGAGAGT | 0.38 kcal/mol
CGGGTCACGTGCATTG | 0.18 kcal/mol
GGAACCACGTGAGGTG | 0.14 kcal/mol
GAGTGCACGTGCGTAG | 0.05 kcal/mol
ACTGGCACGTGTGCGT | -0.2 kcal/mol
TCTGACACGTGATGGG | -0.02 kcal/mol

Sequence | relative binding free energy
TAGAGCACGTGTATGG | -0.1 kcal/mol
GTGTGCACGTGCAGGC | -0.05 kcal/mol
GAGTTCACGTGTCGTA | 0.3 kcal/mol
TTAGGCACGTGATATA | -0.05 kcal/mol
ATGGTCACGTGGCTTT | 0.02 kcal/mol
GCGCTCACGTGGGGTG | 0.17 kcal/mol
AGATACACGTGACGGT | 0.35 kcal/mol
TCTGGCACGTGGATAG | -0.15 kcal/mol
TATTGCACGTGTGAAG | 0.18 kcal/mol
GGAGTCACGTGCATTT | 0.24 kcal/mol
GTAAGCACGTGGTTAA | -0.21 kcal/mol
TGCGACACGTGCAGGG | -0.05 kcal/mol
ATGCGCACGTGTTGAT | -0.14 kcal/mol
TTACACACGTGTGTTA | 0.05 kcal/mol
CAGATCACGTGTAGGG | 0.05 kcal/mol
AGCCGCACGTGGGTGG | -0.27 kcal/mol
TTGAGCACGTGGTTGG | -0.11 kcal/mol
TTGGGCACGTGCGAGT | -0.05 kcal/mol
TTCTACACGTGTTGCG | 0.09 kcal/mol
GGACGCACGTGGGATG | -0.25 kcal/mol
AGGTGCACGTGAAGGT | 0.24 kcal/mol
TAAGACACGTGGGGAT | -0.07 kcal/mol
TTTTGCACGTGGCGGG | -0.07 kcal/mol
GGGAACACGTGGGAGT | -0.1 kcal/mol
TGGTGCACGTGGCTGG | -0.04 kcal/mol
ATGGTCACGTGCGTCG | 0.02 kcal/mol

Sequence | relative binding free energy
TGTGACACGTGTGGAG | -0.04 kcal/mol
TTATCCACGTGGGAGT | 0 kcal/mol
GGGGCCACGTGTTAAT | 0.06 kcal/mol
TGTGGCACGTGTAGGT | -0.03 kcal/mol
TAAGACACGTGTGTGA | 0.06 kcal/mol
AGGTGCACGTGACGGA | -0.03 kcal/mol
ACGGGCACGTGTGTAT | -0.06 kcal/mol
AAGGACACGTGTTTGG | 0.04 kcal/mol
TCTATCACGTGGTGCG | 0.17 kcal/mol
AATACCACGTGTGTGT | -0.1 kcal/mol
CGGGTCACGTGTGTCG | 0.12 kcal/mol
GTGGGCACGTGAGTTA | 0.15 kcal/mol
AGTGGCACGTGAGAGT | 0.17 kcal/mol
TTTCACACGTGTGAGA | 0.19 kcal/mol
CTTGACACGTGGGTGG | -0.08 kcal/mol
TCGTGCACGTGAAGGA | 0.22 kcal/mol
CGGTTCACGTGCTGGT | 0.15 kcal/mol
CTAGACACGTGGGTTT | -0.08 kcal/mol
CGGGTCACGTGCTGGA | 0.04 kcal/mol
AAGTTCACGTGTAGGA | 0.4 kcal/mol
CGGTTCACGTGGGTTT | 0.25 kcal/mol
CGTGACACGTGATGTG | 0.09 kcal/mol
GGTAACACGTGGGATT | 0.14 kcal/mol
TGAATCACGTGTATAG | 0.28 kcal/mol
GGTTGCACGTGTCGGA | 0 kcal/mol
TGGTCCACGTGAGCGG | 0.08 kcal/mol

Sequence | relative binding free energy
CCATTCACGTGGGTGT | 0.12 kcal/mol
AGGATCACGTGTGTTT | 0.19 kcal/mol
ATCTGCACGTGGAAGG | 0 kcal/mol
GGGTCCACGTGTTATA | 0.03 kcal/mol
TGCGTCACGTGGTGCA | 0.06 kcal/mol
GCGTGCACGTGGTGGT | -0.12 kcal/mol
ATCAGCACGTGATGTG | -0.02 kcal/mol
GGTCTCACGTGGAGGG | 0.21 kcal/mol
GGGATCACGTGTTCAG | 0.33 kcal/mol
GTGTACACGTGGGAGG | -0.08 kcal/mol
CGGTCCACGTGTTCGG | 0.1 kcal/mol
ATTTGCACGTGGTTAA | -0.17 kcal/mol
TGTCTCACGTGTGGAT | 0.24 kcal/mol
GATTTCACGTGCTGAT | 0.37 kcal/mol
AATTTCACGTGCGGAT | 0.23 kcal/mol
TCTTTCACGTGGTTTG | 0.22 kcal/mol
TATGGCACGTGGTAAC | -0.02 kcal/mol
TGCAACACGTGAGTGT | 0.2 kcal/mol
TCTGGCACGTGGTAGA | -0.14 kcal/mol
CGTGTCACGTGAGTGT | 0.23 kcal/mol
GTGACCACGTGGGCGG | -0.18 kcal/mol
TATTGCACGTGTGCTG | -0.08 kcal/mol
GAGATCACGTGTTACG | 0.27 kcal/mol
TGTTGCACGTGTTAAT | 0.13 kcal/mol
TAATTCACGTGGGACT | 0.16 kcal/mol
AGAAGCACGTGTGGTA | -0.09 kcal/mol

Sequence | relative binding free energy
CCAAGCACGTGTGGGT | 0.05 kcal/mol
TAGTACACGTGAGTTG | 0.34 kcal/mol
TGGTCCACGTGTTGGC | -0.01 kcal/mol
CTGTACACGTGTGGGA | 0.15 kcal/mol
ATATACACGTGGTGTA | -0.16 kcal/mol
ATGTGCACGTGCGAGT | -0.12 kcal/mol
TATGGCACGTGGTTGA | -0.11 kcal/mol
AGGGTCACGTGGCATG | 0.11 kcal/mol
AGTCGCACGTGGGGCT | -0.26 kcal/mol
TTATACACGTGGGCTG | -0.2 kcal/mol
TGGCGCACGTGATGTT | 0.07 kcal/mol
GCGAGCACGTGGGGCA | -0.19 kcal/mol
ATGGCCACGTGGCGTT | -0.27 kcal/mol
TGTGTCACGTGTGTCT | 0.14 kcal/mol
TGAATCACGTGATTTA | 0.25 kcal/mol
AGGCTCACGTGTAATT | 0.34 kcal/mol
CAAGTCACGTGTCGTG | 0.22 kcal/mol
AGGTGCACGTGTTTGC | 0.06 kcal/mol
TGGTACACGTGGCGGT | 0.05 kcal/mol
ATGGGCACGTGGATAG | -0.21 kcal/mol
TGGCGCACGTGCGTTG | -0.28 kcal/mol
TATGTCACGTGTTGCT | 0.05 kcal/mol
ATGAGCACGTGTATTT | -0.24 kcal/mol
CTTGACACGTGGGATT | 0.03 kcal/mol
TGGTGCACGTGTCGAA | -0.1 kcal/mol
ATAGGCACGTGTAGGT | -0.12 kcal/mol

Sequence | relative binding free energy
CATTTCACGTGAATTG | 0.35 kcal/mol
GGTGGCACGTGCGTAG | -0.03 kcal/mol
GCGGGCACGTGGTGAC | -0.11 kcal/mol
TTGCACACGTGTTAGG | 0.03 kcal/mol
AGGAACACGTGAGGTG | 0.24 kcal/mol
TTTATCACGTGAGTAT | 0.4 kcal/mol
GTGGGCACGTGCTCTG | -0.24 kcal/mol
AGTTACACGTGGGGGA | -0.08 kcal/mol
GAGTGCACGTGGGCGA | -0.21 kcal/mol
TAGGACACGTGCTGTG | -0.01 kcal/mol
AGATACACGTGTATTT | -0.06 kcal/mol
TTTTTCACGTGAAGCG | 0.33 kcal/mol
TATAGCACGTGGCGAG | -0.18 kcal/mol
CGTATCACGTGAAATG | 0.43 kcal/mol
TCTATCACGTGGTTTA | 0.21 kcal/mol
TTCTGCACGTGTGATT | 0.02 kcal/mol
TATGACACGTGTTATG | 0.19 kcal/mol
ATTTTCACGTGAGGTT | 0.36 kcal/mol
GGTATCACGTGGAATG | 0.3 kcal/mol
CTGGGCACGTGTGGAC | 0.06 kcal/mol
AATTACACGTGTGTAG | 0.06 kcal/mol
AATGACACGTGGTGCG | -0.09 kcal/mol
TGGGCCACGTGGTCTG | -0.2 kcal/mol
CGTGGCACGTGTTTCT | 0.02 kcal/mol
AGTATCACGTGATTGT | 0.31 kcal/mol
ATTGTCACGTGTGGGT | 0.15 kcal/mol

Sequence | relative binding free energy
TTAGGCACGTGATGTT | -0.03 kcal/mol
GTGTCCACGTGAAGTG | 0.28 kcal/mol
GTTGGCACGTGCTGGC | -0.16 kcal/mol
AGGGGCACGTGTACAT | -0.18 kcal/mol
ATATGCACGTGTGTGG | -0.02 kcal/mol
AGGGTCACGTGCAGTT | 0.05 kcal/mol
CGGGGCACGTGAGGTC | 0.16 kcal/mol
AGGTTCACGTGGGTTT | 0.29 kcal/mol
AATTGCACGTGTTTTA | 0.03 kcal/mol
GTGGACACGTGAGTCG | 0.07 kcal/mol
CGATGCACGTGGGTGC | -0.11 kcal/mol
GTAGGCACGTGATGCG | -0.03 kcal/mol
TTTGTCACGTGCTTGC | 0.04 kcal/mol
ATATTCACGTGGAGTG | 0.26 kcal/mol
TCTTGCACGTGTAAGT | 0.03 kcal/mol
TTGCGCACGTGGGAGA | -0.23 kcal/mol
TGAGTCACGTGCAAGT | 0.17 kcal/mol
GATCGCACGTGTGTTG | 0.14 kcal/mol
GTCACCACGTGTTGGG | 0.07 kcal/mol
ATGGTCACGTGTGGGG | 0.2 kcal/mol
TGGTTCACGTGAGCTT | 0.48 kcal/mol
GCATGCACGTGTGGGA | 0 kcal/mol
